Experimental findings from patent publication US8557796B2, “Substituted 1-oxa-2,8-diaza-spiro [4,5] dec-2-ene derivatives and related treatment methods” (Gruenenthal GmbH, priority 2001, dated 2013) are described below.

Each structure is given as a SMILES string.

One experiment concerns the target glycine binding site of the NMDA receptor channel (Rattus norvegicus, UniProt P35439). Nature of the experiment: Receptor bond, glycine binding site of the NMDA receptor channel, (3H)-MDL 105.519 displacement. Conditions: rat cortex and hippocampus membrane homogenate. Here is the method: Hawes and P. Towers, Journal of Pharmacology and Experimental Therapeutics, Vol. 279, p. 62, 1996].
For this purpose, cortex and hippocampus from freshly removed rats' brains were freshly prepared and homogenized with ice cooling in 5 mmol/l TRIS-acetate buffer, 0.32 mol/l saccharose pH 7.4 (10 ml/g fresh weight) with a Potter homogenizer (Braun/Melsungen 10 piston strokes at 500 rpm) and then centrifuged for 10 minutes at 1,000 g and 4° C. The first supernatant was collected and the sediment again homogenized with 5 mmol/1 TRIS-acetate buffer, 0.32 mol/l saccharose pH 7.4 (5 ml/g original fresh weight) with the Potter homogenizer (10 piston strokes at 500 rpm) with ice cooling and centrifuged for 10 minutes at 1,000 g and 4° C. The resultant supernatant was combined with the supernatant from the first centrifuging and centrifuged at 17,000 g for 20 minutes at 4° C. The supernatant after this centrifuging was discarded and the membrane sediment taken up with 5 mmol/l TRIS-acetate buffer pH 8.0 (20 ml/g original fresh weight) and homogenized with 10 piston strokes at 500 rpm. The membrane homogenate was then incubated for 1 hour at 4° C. and centrifuged for 30 minutes at 50,000 g and 4° C. The supernatant was discarded and the centrifuge tube with the membrane sediment sealed with parafilm and frozen for 24 hours at −20° C. The following day the membrane sediment was thawed and taken up with 5 mmol ice cold TRIS-acetate buffer, 0.1% saponin (w/v) pH 7.0 (10 ml/g original fresh weight) and homogenized with 10 piston strokes at 500 rpm and then centrifuged for 20 minutes at 50,000 g and 4° C. The resultant supernatant was discarded and the sediment taken up in a small volume with 5 mmol/l TRIS-acetate buffer pH 7.0 (about 2 ml/g original fresh weight) and again homogenized with 10 piston strokes at 500 rpm. After determining the protein content, the membrane homogenate was adjusted with 5 mmol/l TRIS-acetate buffer pH 7.0 to a protein concentration of 10 mg protein/ml and frozen in aliquots until testing.
For the receptor binding test aliquots were thawed, diluted 1:10 with 5 mmol/1 TRIS-acetate buffer pH 7.0, homogenized with ice cooling with 10 piston strokes at 500 rpm using the Potter homogenizer (10 piston strokes at 500 rpm) and centrifuged for 60 minutes at 55,000 g at 4° C. The supernatant was decanted and the membrane sediment adjusted with 50 mmol ice cold TRIS-acetate buffer pH 7.0 to a protein concentration of 1 mg/ml and again homogenized with 10 piston strokes at 500 rpm and held in suspension in the ice bath while stirring on a magnetic stirrer. This membrane homogenate was used in the receptor binding test.
In the binding test 50 mmol/1 TRIS-acetate buffer pH 7.0 was used as buffer and 1 nmol/l (^3H)-MDL 105.519 (B. M. Baron et al. 1996) was used as radioactive ligand. The non-specific bond content was determined in the presence of 1 mmol/l glycine.
The batches were incubated for 120 minutes at 4° C. and then harvested to determine the radioactive ligand bound to the membrane homogenate by filtration through glass fiber filter mats (GF/B). The radioactivity retained on the glass fibre filters was measured in the β-counter after adding scintillator.
Compounds according to the invention were tested in this assay; the measured results are recited in Table 6: […]
`Cc1ccc(S(=O)(=O)NC(Cc2ccccc2)C(=O)N2CCC3(CC2)CC(C(=O)NCc2cccnc2)=NO3)cc1` (centres unmarked) [Example 36]: the “G1yB-bond, 10 μM, % inhibition” value turned out to be 38%.

The same experiment, now with this note: rat cortex and hippocampus membrane homogenate, read-out: G1yB-bond, 10 μM, % inhibition.
Consider `O=C(NC1CCCC1)C1=NOC2(CCN(C(=O)c3cccnc3Cl)CC2)C1` [Example 34, 8-(2-chloro-pyridine-3-carbonyl)-1-oxa-2,8-diaza-spiro[4,5]dec-2-ene-3-carboxylic acid cyclopentylamide], for which the inhibition at 10 µM amounted to 37%.

As for `CCC(C(=O)N1CCC2(CC1)CC(C(=O)NCCC#N)=NO2)c1ccccc1` (centres unmarked) [Example 206, 8-(2-phenyl-butyryl)-1-oxa-2,8-diaza-spiro[4,5]dec-2-ene-3-carboxylic acid (2-cyano-ethyl)-amide], the inhibition at 10 µM was 39%. The same measure, in the same setting: then `O=C(NCCOc1ccccc1)C1=NOC2(CCN(S(=O)(=O)c3cccc(C(F)(F)F)c3)CC2)C1` [Example 202, 8-(3-trifluoromethyl-benzenesulphonyl)-1-oxa-2,8-diaza-spiro[4,5]dec-2-ene-3-carboxylic acid (2-phenoxy-ethyl)-amide], with 59%; and `CC(C)CNC(=O)C1=NOC2(CCN(C(=O)c3ccc(F)cc3)CC2)C1` [Example 137, 8-(4-fluoro-benzoyl)-1-oxa-2,8-diaza-spiro[4,5]dec-2-ene-3-carboxylic acid isobutyl-amide], with 36%; and `CCOc1ccccc1C(=O)N1CCC2(CC1)CC(C(=O)NCCOC(C)=O)=NO2` [Example 190, {[8-(2-ethoxy-benzoyl)-1-oxa-2,8-diaza-spiro[4,5]dec-2-ene-3-carbonyl]-amino]-ethyl acetate], with 89%. The same measure, in the same setting: the result for `CC(=O)OC(C)(C)C(=O)N1CCC2(CC1)CC(C(=O)NCc1ccccc1)=NO2` [Example 174, Acetic acid 2-(3-benzylcarbamoyl-1-oxa-2,8-diaza-spiro[4,5]dec-2-ene-8-yl)-1,1-dimethyl-2-oxo-ethyl ester] reads 41%; that for `CCSCCNC(=O)C1=NOC2(CCN(C(=O)c3c(-c4c(F)cccc4Cl)noc3C)CC2)C1` [Example 175, 8-[3-(2-chloro-6-fluorophenyl)-5-methyl-isoxazole-4-carbonyl]-1-oxa-2,8-diaza-spiro [4,5]dec-2-ene-3-carboxylic acid (2-ethylsulphanyl-ethyl)-amide], 91%.

In general, inhibition refers to how much of the control response was suppressed.
